# Measured values as given in PubChem BioAssay AID488969 (Vanderbilt High Throughput Screening Facility, 2010).
# Over roughly 110,000 compounds, “z-score” has its median near -0.1; the highest 2% begin near 2. This is one part of the list. Active and inactive are the calls of the source.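 Rule for the calls: active = z-score in the third read window above 3 or below -3; inactive = the rest.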
# Target: Metabotropic glutamate receptor 8 (Rattus norvegicus) (UniProt P70579)
# Assay: mGluR8 Gi/Go-coupled signaling modulation – cell-based, rat, thallium flux, HTS, primary screen (AID 488969)
# Conditions: HEK293 rat mGluR8, GIRK (G protein-gated inwardly rectifying potassium channel) thallium flux, FluoZin2; at 10 µM; stronger effect = higher value; submaximal glutamate (EC20) added with thallium
# Sequence of UniProt P70579 (P70579 whole entry, looked up): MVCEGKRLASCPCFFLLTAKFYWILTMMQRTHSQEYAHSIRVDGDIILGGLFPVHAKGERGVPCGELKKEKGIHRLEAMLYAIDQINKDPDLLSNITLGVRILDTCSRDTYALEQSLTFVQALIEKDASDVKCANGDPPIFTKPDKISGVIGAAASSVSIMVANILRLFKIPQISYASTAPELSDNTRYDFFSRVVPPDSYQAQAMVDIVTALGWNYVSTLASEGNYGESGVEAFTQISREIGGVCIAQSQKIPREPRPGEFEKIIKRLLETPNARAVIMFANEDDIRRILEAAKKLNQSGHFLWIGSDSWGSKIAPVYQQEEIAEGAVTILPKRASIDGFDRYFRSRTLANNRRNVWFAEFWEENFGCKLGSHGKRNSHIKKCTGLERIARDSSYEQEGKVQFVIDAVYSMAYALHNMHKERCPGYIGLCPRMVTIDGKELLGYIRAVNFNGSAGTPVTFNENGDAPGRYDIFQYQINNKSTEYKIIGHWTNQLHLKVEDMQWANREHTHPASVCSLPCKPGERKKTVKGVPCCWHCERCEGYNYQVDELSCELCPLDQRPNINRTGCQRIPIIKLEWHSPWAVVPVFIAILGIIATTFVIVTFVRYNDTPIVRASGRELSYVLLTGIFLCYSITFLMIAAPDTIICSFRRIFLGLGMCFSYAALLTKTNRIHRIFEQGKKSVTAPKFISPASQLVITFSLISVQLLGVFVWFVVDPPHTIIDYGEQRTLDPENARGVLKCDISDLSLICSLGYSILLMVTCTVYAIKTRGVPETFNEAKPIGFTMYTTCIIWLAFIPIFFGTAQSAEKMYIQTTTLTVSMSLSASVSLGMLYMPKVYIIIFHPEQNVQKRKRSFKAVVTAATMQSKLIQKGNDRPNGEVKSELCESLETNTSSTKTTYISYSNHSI
row,Structure (SMILES),z-score
1,O=C(NCc1nc2ccccc2[nH]1)c1ccco1,-0.132
2,O=C(Nc1ccccc1Cl)c1ccccc1Oc1ccc(C(F)(F)F)cc1[N+](=O)[O-],-0.11
3,CC1CCN(S(=O)(=O)N2CCC(C(=O)N3CCC(N(C)CC4CCCO4)CC3)CC2)CC1 (stereo not drawn),-0.0208
4,O=C(OCC(=O)c1ccccc1Br)c1ccccn1,0.583
5,COc1ccccc1CNC(=O)c1c(-c2ccccc2)nn(-c2ccccc2)c1C,-0.592
6,O=C(COc1ccccc1)Nc1ccc(S(=O)(=O)N2CCCCCC2)cc1,0.0536
7,Cc1ccc(-c2nc(N)n(C(=O)c3cccnc3)n2)cc1,0.477
8,C=C(C)C1CC=C(C)/C(=N/NC(=O)c2ccc(NC(=O)CC)cc2)C1 (stereo not drawn),-0.376
9,COc1ccc(CCNC(=O)CCC2COc3ccccc3O2)cc1OC (stereo not drawn),-0.187
10,O=C(N=C1c2ccccc2CN1c1ccc(F)cc1)c1ccc(Cl)nc1,-0.285
11,O=C(CCCc1c[nH]c2ccccc12)N1CCN(S(=O)(=O)c2cccs2)CC1,-0.212
12,O=C/C(=C\Nc1ccc(Cl)cn1)c1nc2ccccc2o1,0.831
13,COc1cccc(-c2nc(N3CCN(c4ccccc4)CC3)c3ccccc3n2)c1O,-0.347
14,COC(=O)CCCNC(=O)OCc1ccc([N+](=O)[O-])cc1,-0.0181
15,c1ccc2c(Nc3nc4c(s3)CCCC4)cccc2c1,0.0222
16,COc1ccc(-n2nnc3c(=O)n(CC(=O)N4CCCC4)cnc32)cc1,-0.175
17,CCCCCCOC(=O)Cc1c(C)nc(-c2ccccc2)[nH]c1=O,-0.0971
18,COC(=O)c1cc(NC(=O)C2COc3ccccc3O2)cc(C(=O)OC)c1 (stereo not drawn),-1.1
19,CCCN1C=CC(=C/C=C(\C#N)C(=O)OCC)C=C1,-2.8
20,O=C(Cc1ccccc1)N/N=C/c1cc(Br)c(Br)o1,-0.248
21,COC(=O)Cn1cnc2c(C#N)c3n(c2c1=O)CCCC3,-0.2
22,CCc1nnc(NC(=O)CSc2nnc(CNc3ccc(Cl)cc3)o2)s1,1.29
23,CCOC(=O)N1CCC(Nc2c(NCCCN(CC)CC)c(=O)c2=O)CC1,-0.0427

row,Structure (SMILES),z-score
1,CC(=O)Nc1cccc(N(C)S(C)(=O)=O)c1,0.102
2,Cc1ccc(C(=O)O)c(C(=O)Nc2nc(C)cs2)c1,-0.407
3,COc1ccc(NC(=O)N2CCCC2C(=O)Nc2ccccc2)cc1 (stereo not drawn),0.0437
4,O=C(COc1cccc2cccnc12)N/N=C1\SCC(=O)N1Cc1ccccc1,-0.366
5,Clc1ccc2c(c1)c1cc(Cl)ccc1n2CN1CCOCC1,0.0165
6,COc1cccc(OC)c1C(=O)NCCN1CCN(C(=O)c2c(OC)cccc2OC)CC1,-0.438
7,CCOC(=O)CN1C(=O)C(Sc2n[nH]c(-c3cccc(C)c3)n2)CCc2ccccc21 (stereo not drawn),-0.33
8,COc1ccc(C2C=C(c3ccc(Cl)cc3)Nc3nc(NC(C)=O)nn32)cc1 (stereo not drawn),0.461
9,O=C(Nc1cccnc1)c1ccc(COc2cc(Cl)ccc2Cl)o1,0.117
10,Nc1cc(N)nc(SCc2nnnn2-c2ccc(Cl)cc2)n1,-0.0895
11,CC1Cc2ccccc2N1C(=O)COC(=O)CNC(=O)c1ccc(Br)o1 (stereo not drawn),-0.414
12,CC12CC3(C)CC(C)(C1)CC(C(=O)NC(=S)N1CCOCC1)(C2)C3,active: 8.61
13,Cc1nn(Cc2ccccc2)c(C)c1NC(=O)CSc1nc(C2CC2)nc2c1cnn2-c1ccccc1,0.136
14,COc1ccccc1NC(=O)CCn1cccc1,0.0878
15,CC(NCc1ccc(-c2ccccc2)cc1)C(O)c1ccccc1 (stereo not drawn),0.565
16,CCOc1cc(NC(=O)c2ccccc2C)c(OCC)cc1NC(=O)C1=Cc2ccccc2OC1,-0.376
17,CCCCn1c(N)c(-c2nc3ccccc3s2)c2c([N+](=O)[O-])nn(CC)c(=O)c21,-0.243
18,CCc1ccc(-n2nc3ccc(NC(=O)c4ccc5c(c4)OCO5)cc3n2)cc1,-0.204
19,COC(=O)c1cc(NC(=O)C2COc3ccccc3O2)ccc1Cl (stereo not drawn),-0.36
20,Cn1c(SCC(=O)Nc2ccc(F)cc2)nnc1-c1cccnc1,-0.349
21,Cc1ccc(NC(=O)C2CCN(S(=O)(=O)c3ccc(F)cc3)CC2)cc1,-0.0485
22,CCOC(=O)c1cnc(SC)nc1Oc1cccc(NS(=O)(=O)c2ccc(C)cc2)c1,-0.962
23,CCCCNC(=O)c1onc(CCl)c1C(=O)OC,0.00479

row,Structure (SMILES),z-score
1,COc1cc(CNn2c(C)n[nH]c2=S)cc(Cl)c1OCc1ccccc1,-0.366
2,CCOc1cccc(CNCCNC(=O)c2nonc2N)c1,-0.576
3,CCN=C1S/C(=C\c2cn(C(C)=O)nc2-c2ccccc2)C(=O)N1CC,-0.379
4,O=S(=O)(NCc1ccccc1)c1ccc(Cl)cc1,2.77
5,Cc1ccc(NC(=O)NC(=O)CSc2nnc(-c3ccc(Cl)cc3Cl)n2N)c(C)c1,-0.0115
6,CCOC(=O)N1CCN(C2CC(=O)N(c3ccc(Cl)c(Cl)c3)C2=O)CC1 (stereo not drawn),0.175
7,COC(=O)c1cc(COC(=O)c2ccc(OC)c(S(=O)(=O)N3CCCC3)c2)oc1C,-0.713
8,CC(=O)c1cccc(NC=C2C(=O)OC3(CCCCC3)OC2=O)c1,-0.292
9,C/C(=N\Nc1ccc(C(=O)O)cc1)c1nc2ccccc2n1C,-0.702
10,CCOc1ccc(CCNC(=O)COC(=O)c2ccco2)cc1OCC,-0.519
11,COc1ccc(C)cc1S(=O)(=O)N(C)CC(=O)N1CCCCC1,0.0196
12,CC(C)Cn1c(SCC(=O)N2CCCCC2)nc2ccccc2c1=O,-0.537
13,COC(=O)C1CCCN1C(=O)c1cccs1 (stereo not drawn),active: 5.05
14,COc1ccc(CCNC(=O)c2ccc(N3CCCC3=O)cc2)cc1OC,0.885
15,Cc1ccc(C)c(C(=O)COc2ccc(C)nc2[N+](=O)[O-])c1,-0.0394
16,CCOC(=O)c1nsnc1NCCSC(=N)N,-0.12
17,S=c1[nH]nc(-c2cccnc2)o1,-0.348
18,O=C(Cn1cnc2ccccc2c1=O)c1cccs1,-0.0304
19,CCC1(C(=O)c2ccccc2)C2c3cc(Br)ccc3OC(=O)C21C(=O)N1CCOCC1 (stereo not drawn),0.194
20,NC1=NC(c2ccccc2Cl)n2c(nc3ccccc32)N1 (stereo not drawn),1.47
21,COCc1nc(-c2cc(Br)ccc2OC)no1,-0.14
22,COc1ccc(CCNC(=O)c2ccc(N3CCCC3=O)cc2)cc1,0.0212
23,COc1ccccc1C(=O)Nc1ccon1,-0.11

row,Structure (SMILES),z-score
1,COc1ccc(CCNC(=O)C2CCCN(S(C)(=O)=O)C2)cc1OC (stereo not drawn),0.474
2,COc1nc(NCC(C)C)nc(Oc2ccc(OCc3ccccc3)nn2)n1,-0.19
3,N#CC(C(=O)Nc1cccc(Cl)c1)=C1Nc2ccccc2N1,0.00324
4,COCCNCCOCCOc1ccc(Cl)c(C)c1,-0.271
5,O=C(NCc1cccnc1)c1cc(Sc2ccc(F)cc2F)nc2ccccc12,-0.458
6,CCCCC1=C([O-])C2N=CC=CC2=[N+](c2ccccn2)C1=O (stereo not drawn),-0.104
7,Cn1cnc([N+](=O)[O-])c1Sc1ncccc1N,-0.104
8,S=C(Nc1ccccc1)N1CCCCCC1,-0.16
9,CCCc1nc2ccc(NC(=O)NCCC(=O)OCC)cc2c(=O)n1Cc1cccc(Cl)c1,0.042
10,O=C(NCc1ccccc1)N[C@@H](Cc1c[nH]c2ccccc12)C(=O)O,-0.0284
11,Cc1ccc(C(=O)c2sc3c(c2N)c(=O)[nH]c(=O)n3CCc2ccccc2)cc1,-0.0339
12,Cc1ccc(NC2=NCC(=O)N2C2CCCC2)c(C)c1,-0.0384
13,O=S(=O)(c1ccc2nc(SCc3cccc(Cl)c3)[nH]c2c1)N1CCOCC1,-0.3
14,C=CCn1c(SCC(=O)N2CCOCC2)nc(O)cc1=O,-0.237
15,C=CCNCCCCOc1ccc(OCC)cc1,0.793
16,CCc1nc(N)c(C#N)c(-c2ccc(OC)c(OC)c2)c1C,0.0142
17,COc1ccc2c(c1)C(c1ccc([N+](=O)[O-])cc1)=NNC(c1ccco1)=N2,-0.252
18,CCc1cc(C(=O)N=Nc2c(O)[nH]c3ccc([N+](=O)[O-])cc23)c2ccccc2n1,-0.481
19,CC(C)C[C@H](NC(=O)Nc1cccc(C(F)(F)F)c1)C(=O)O,-0.499
20,Cc1ccc(C(=O)Oc2csc(=S)n2C(=O)c2ccc(C)cc2)cc1,0.28
21,CCCCN1C2CCCC1CC(NC(=O)N(C(C)C)C(C)C)C2 (stereo not drawn),-0.0384
22,COc1cc(CC(=O)OCC(=O)Nc2cc([N+](=O)[O-])ccc2F)cc(OC)c1OC,-0.0237
23,Cc1cccc(NC(=O)Cn2nnc(C(=O)NCc3cccs3)c2N)c1C,-0.0432

row,Structure (SMILES),z-score
1,COc1cc2[nH]c(=O)n(CCCC(=O)NCCc3ccccc3)c(=O)c2cc1OC,0.133
2,CCCCOCCCNC(=O)CC(C)c1ccccc1 (stereo not drawn),-0.578
3,CC1CC(=O)NN=C1c1ccc(NCCO)c([N+](=O)[O-])c1 (stereo not drawn),0.315
4,Cc1cc(C)c(C#N)c(SCC(=O)Nc2ccc3c(c2)OCO3)n1,0.149
5,Cc1csc2nc(CNC(=O)c3ccco3)cn12,0.19
6,CC1CCC(NC(=O)c2cc3c(=O)n(C)c4ccccc4c3n2C)CC1 (stereo not drawn),-0.698
7,CCCn1c2ccccc2c2nc3ccccc3nc21,-0.228
8,CCC(CC)c1nnc(NC(=O)CS(=O)(=O)Cc2ccccc2)s1,-0.217
9,O=c1[nH]c2c(c(=O)n1Cc1ccccc1)CCC2,-0.106
10,CCOC(=O)/C(C#N)=C1/SC(CC)C(=O)N1c1ccc(C)cc1 (stereo not drawn),-0.0471
11,CC(C)Oc1nnnn1-c1ccccc1,-0.0267
12,CCCNC(=O)NC(=O)COC(=O)CC(NC(N)=O)c1ccc(Cl)cc1 (stereo not drawn),-0.33
13,COc1cccc2cc(C(=O)N(C)C)c(=O)oc12,-0.0473
14,OC(CN1CCN(c2ccccn2)CC1)Cn1c2ccccc2c2ccccc21 (stereo not drawn),0.599
15,N#CC1=C(N2CCCCC2)c2cc3c(n2C1=O)CCCC3,-1.02
16,C=C1C2(C(=O)Nc3nccs3)CCC(C2)C1(C)C (stereo not drawn),-0.355
17,Fc1ccc(/C=C2\CCCC3=C2NC(=S)NC3c2ccc(F)cc2)cc1 (stereo not drawn),-0.0195
18,Cc1c(Cl)cccc1NC(=O)COC(=O)CCc1nc2ccccc2n1-c1ccccc1,-0.254
19,O=[N+]([O-])c1ccc2nc(-c3ccc(Cl)cc3)n(OCc3ccccc3)c2c1,-0.249
20,CCCC(C(=O)NC1CCCCC1)N(Cc1ccco1)C(=O)CNS(=O)(=O)c1ccccc1 (stereo not drawn),-0.578
21,CCOCCCNS(=O)(=O)c1ccc(OC)c(Cl)c1Cl,-0.0705
